Measurements published in a collection of fitness landscapes (doi:10.1016/j.celrep.2020.107928).
Over roughly 81,000 sequences, “one-hybrid fitness for binding NBS DNA” has its median near -0.1; the highest 2% begin near 0.36. The list shows a part of the results.

B1: Caulobacter ParB omega fusion; a variant is named by its letters at X, in order, B8GW30 (parent)
chain: MESVVVGEPGMSEGRRGLGRGLSALLGEVDAAPAQAPGEQLGGSREAPIEILQRNPDQPRRTFREEDLEDLSNSIREKGVLQPILVRPSPDTAGEYQIVAGERAWRAAQRAGLKTVPIMVRELDDLAVLEIGIIENVQRADLNVLEEALSYKVLMEKFERTQENIAQTIGKSXSHVANXMRLLXLPDEVQSYLVSGELTAXHARAIAAAADPVALAKQIIEGGLSVRETEALARKAPNLSAGKSKGGRPPRVKDTDTQALESDLSSVLGLDVSIDHRGSTGTLTITYATLEQLDDLCNRLTRGI

Variants of: B1
Assay: one-hybrid fitness for binding NBS DNA (the Noc-binding site; scaled: cognate 1, non-cognate 0); higher = stronger binding
Conditions: with NBS DNA site
Outline: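 Pre- and post-selection plasmids were Illumina-sequenced, three replicate libraries were pooled, and any variant with under 10 reads was removed. The libraries were Caulobacter ParB with four specificity codons randomised, selected in E. coli USO through a HIS3 reporter whose site is 19 bp from the promoter. Cells grew 48 hours at 37°C on M9 without histidine, with 0.1 mM IPTG and 5 mM 3-AT. Fitness is the log change in variant-to-wild-type read ratio, rescaled against cognate and non-cognate.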

one-hybrid fitness for binding NBS DNA, ≤ 0.2:
AHPD
CSVT
KINT
STMW
ELDF
CSPM
VSGK
LLPA
IADS
RRIP
EANV
SGLA
IVPG
TIWR
HTYY
VMYV
QAVC
GETM
SECA
TDPE
PREF
FATR
KLNC
CMGS
HLVD
SQMA
RGPC
KKET
NPAD
PCPG
ICNG
KRWF
MSQQ
VSLQ
SSIC
KQSF
CSQE
LNQH
VGKC
EYDR
SLTP
SMPC
NDSS
THTF
RRFD
TMLR
HDSV
GCWT
PILP
REED
CCDL
IRMG
ARMS
FTAS
SFVY
HEVG
HMHG
KCIS
HHCC
RWTY
DHNE
QPIC
GLTA
QGCC
AVYC
TWPR
CYTV
HSCT
RVMH
NITM
KPKK
KCMS
YNAK
REVN
AAIL
DCAT
HTIC
VPFT
CKKL
MMIR
INLT
APNM
ALNS
NASL
IESC
TKKC
NVDM
VCSS
WRHV
TQVD
YLQG
SAVD
LCFT
TQWR

one-hybrid fitness for binding NBS DNA, 0.271:
QRIY

one-hybrid fitness for binding NBS DNA, 0.733:
QYRT

one-hybrid fitness for binding NBS DNA, 0.433:
RVCT

one-hybrid fitness for binding NBS DNA, 0.44:
QRNC
